Assay results from the supplement of paper PMC8728848.
The list shows a part of the results.

Key:
Experiment in all cases: glycan array binding signal (z-score within array); higher = stronger binding
Conditions in all cases: glycan notation: IUPAC condensed, linker removed
[1] = biological target: GlcNAc(b1-3)Gal(b1-4)GlcNAc(b1-3)Gal(b1-4)GlcNAc(b1-3)GalNAc
Procedure, shortened: (§1)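 Negative Z-scores can be read as non-binding. The Z-score is calculated within each array and then averaged across arrays of one protein sequence at different concentrations or buffers and across linkers. Arrays, 3228 in all, were curated from the Consortium for Functional Glycomics database and kept only where the protein sequence was available.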

[2] = biological target: GlcNAc(b1-3)Gal(b1-4)GlcNAc(b1-3)GalNAc
Procedure, shortened: as §1

[3] = biological target: GlcNAc(b1-3)Gal(b1-4)GlcNAc(b1-3)[GlcNAc(b1-3)Gal(b1-4)GlcNAc(b1-3)]GalNAc
Procedure, shortened: as §1

[4] = biological target: GlcNAc(b1-3)Gal(b1-4)GlcNAc(b1-6)[Gal(b1-3)]GalNAc
Procedure, shortened: as §1

[5] = biological target: GlcNAc(b1-3)Gal(b1-4)GlcNAc(b1-6)[GlcNAc(b1-3)Gal(b1-3)]GalNAc
Procedure, shortened: as §1

[6] = biological target: GlcNAc(b1-3)Gal(b1-4)GlcNAc(b1-6)[GlcNAc(b1-3)]Gal(b1-4)GlcNAc
Procedure, shortened: as §1

GlcNAc(b1-3)GalNAc = biological target: GlcNAc(b1-3)GalNAc
Procedure, shortened: as §1

GlcNAc(b1-3)Man = biological target: GlcNAc(b1-3)Man
Procedure, shortened: as §1

[7] = biological target: GlcNAc(b1-3)[GlcNAc(b1-4)][GlcNAc(b1-6)]GlcNAc
Procedure, shortened: as §1

[8] = biological target: GlcNAc(b1-3)[GlcNAc(b1-6)]Gal(b1-4)GlcNAc
Procedure, shortened: as §1

[9] = biological target: GlcNAc(b1-3)[GlcNAc(b1-6)]GalNAc
Procedure, shortened: as §1

[10] = biological target: GlcNAc(b1-4)Gal(b1-4)GlcNAc
Procedure, shortened: as §1

GlcNAc(b1-4)GlcNAc = biological target: GlcNAc(b1-4)GlcNAc
Procedure, shortened: as §1

[11] = biological target: GlcNAc(b1-4)GlcNAc(b1-4)GlcNAc
Procedure, shortened: as §1

[12] = biological target: GlcNAc(b1-4)GlcNAc(b1-4)GlcNAc(b1-4)GlcNAc(b1-4)GlcNAc
Procedure, shortened: as §1

[13] = biological target: GlcNAc(b1-4)GlcNAc(b1-4)GlcNAc(b1-4)GlcNAc(b1-4)GlcNAc(b1-4)GlcNAc
Procedure, shortened: as §1

[14] = biological target: GlcNAc(b1-4)[GlcNAc(b1-6)]GalNAc
Procedure, shortened: as §1

[15] = biological target: GlcNAc(b1-6)Gal(b1-4)GlcNAc
Procedure, shortened: as §1

GlcNAc(b1-6)GalNAc = biological target: GlcNAc(b1-6)GalNAc
Procedure, shortened: as §1

[16] = biological target: GlcNAc6S(b1-3)Gal(b1-4)GlcNAc
Procedure, shortened: as §1

Kdn(a2-3)Gal(b1-3)GalNAc = biological target: Kdn(a2-3)Gal(b1-3)GalNAc
Procedure, shortened: as §1

Kdn(a2-3)Gal(b1-3)GlcNAc = biological target: Kdn(a2-3)Gal(b1-3)GlcNAc
Procedure, shortened: as §1

Kdn(a2-3)Gal(b1-4)Glc = biological target: Kdn(a2-3)Gal(b1-4)Glc
Procedure, shortened: as §1

Kdn(a2-3)Gal(b1-4)GlcNAc = biological target: Kdn(a2-3)Gal(b1-4)GlcNAc
Procedure, shortened: as §1

[17] = biological target: Kdn(a2-3)Gal(b1-4)[Fuc(a1-3)]GlcNAc
Procedure, shortened: as §1

Kdn(a2-6)Gal(b1-4)GlcNAc = biological target: Kdn(a2-6)Gal(b1-4)GlcNAc
Procedure, shortened: as §1

[18] = biological target: Man(a1-2)Man(a1-2)Man(a1-3)Man
Procedure, shortened: as §1

[19] = biological target: Man(a1-2)Man(a1-2)Man(a1-6)[Man(a1-3)]Man
Procedure, shortened: as §1

Man(a1-2)Man(a1-3)Man = biological target: Man(a1-2)Man(a1-3)Man
Procedure, shortened: as §1

[20] = biological target: Man(a1-2)Man(a1-3)[Man(a1-2)Man(a1-6)]Man
Procedure, shortened: as §1

[21] = biological target: Man(a1-2)Man(a1-3)[Man(a1-2)Man(a1-6)]Man(a1-6)[Man(a1-2)Man(a1-2)Man(a1-3)]Man
Procedure, shortened: as §1

[22] = biological target: Man(a1-2)Man(a1-3)[Man(a1-2)Man(a1-6)]Man(a1-6)[Man(a1-2)Man(a1-2)Man(a1-3)]Man(b1-4)GlcNAc(b1-4)GlcNAc
Procedure, shortened: as §1

[23] = biological target: Man(a1-2)Man(a1-3)[Man(a1-6)]Man(a1-6)[Man(a1-2)Man(a1-3)]Man(b1-4)GlcNAc(b1-4)GlcNAc
Procedure, shortened: as §1

[24] = biological target: Man(a1-2)Man(a1-6)[Man(a1-3)]Man(a1-6)[Man(a1-2)Man(a1-2)Man(a1-3)]Man
Procedure, shortened: as §1

[25] = biological target: Man(a1-2)Man(a1-6)[Man(a1-3)]Man(a1-6)[Man(a1-2)Man(a1-2)Man(a1-3)]Man(b1-4)GlcNAc(b1-4)GlcNAc
Procedure, shortened: as §1

Man(a1-3)[Man(a1-6)]Man = biological target: Man(a1-3)[Man(a1-6)]Man
Procedure, shortened: as §1

[26] = biological target: Man(a1-3)[Man(a1-6)]Man(a1-6)[Man(a1-2)Man(a1-3)]Man(b1-4)GlcNAc(b1-4)GlcNAc
Procedure, shortened: as §1

B1: GS13846A-bth-444-19-444 (Bacteroides thetaiotaomicron) (protein)
chain: SCENEFDVSDKADSLISVTVNTLNNQAAYNVGETAQAELWIQRGGLKDASGKVQFVVDPLLLDSLNQEDKTNYELLPENCYEMTNTEFTVDKNELCGYITYHPEKILALSAYNETKYVLPLRLISNDLAINPARNTSFLAFTILEPIVHISNAGVYNINPDLTSTMDIQIGVPFTNKWDILCNLTEDLSLIDEYNQINKVNFTLLPENAYTAPESVTLQEGVSQITASYQLKNNLVPGNYILPIKIGSITASQGGVPNNSLVIDEESNVLFCIVKEGNKINKSGWEVIECSSEHAGNEATYMIDDNESTYWHCKFKNEAGSSVPPFHFIIDMKKEITIAQIDLLNRGDGAANNIKWVEFYASNNNSEWDKIGAGDFNDEGTRATFRYYVKSTKARYLKLIIPEGYGNNCPPAAIRELTVYGLEGNN
- glycan array binding signal (z-score) [1]: -0.379
- glycan array binding signal (z-score) [2]: -0.131
- glycan array binding signal (z-score) [3]: -0.247
- glycan array binding signal (z-score) [4]: -0.095
- glycan array binding signal (z-score) [5]: -0.091
- glycan array binding signal (z-score) [6]: -0.178
- glycan array binding signal (z-score) (GlcNAc(b1-3)GalNAc): -0.185
- glycan array binding signal (z-score) (GlcNAc(b1-3)Man): -0.278
- glycan array binding signal (z-score) [7]: -0.464
- glycan array binding signal (z-score) [8]: -0.041
- glycan array binding signal (z-score) [9]: -0.274
- glycan array binding signal (z-score) [10]: -0.193
- glycan array binding signal (z-score) (GlcNAc(b1-4)GlcNAc): -0.324
- glycan array binding signal (z-score) [11]: -0.081
- glycan array binding signal (z-score) [12]: -0.224
- glycan array binding signal (z-score) [13]: -0.104
- glycan array binding signal (z-score) [14]: -0.208
- glycan array binding signal (z-score) [15]: -0.131
- glycan array binding signal (z-score) (GlcNAc(b1-6)GalNAc): -0.108
- glycan array binding signal (z-score) [16]: -0.011
- glycan array binding signal (z-score) (Kdn(a2-3)Gal(b1-3)GalNAc): -0.219
- glycan array binding signal (z-score) (Kdn(a2-3)Gal(b1-3)GlcNAc): -0.228
- glycan array binding signal (z-score) (Kdn(a2-3)Gal(b1-4)Glc): -0.259
- glycan array binding signal (z-score) (Kdn(a2-3)Gal(b1-4)GlcNAc): -0.171
- glycan array binding signal (z-score) [17]: 0.218
- glycan array binding signal (z-score) (Kdn(a2-6)Gal(b1-4)GlcNAc): -0.191
- glycan array binding signal (z-score) [18]: -0.375
- glycan array binding signal (z-score) [19]: -0.207
- glycan array binding signal (z-score) (Man(a1-2)Man(a1-3)Man): -0.266
- glycan array binding signal (z-score) [20]: -0.335
- glycan array binding signal (z-score) [21]: -0.25
- glycan array binding signal (z-score) [22]: 0.749
- glycan array binding signal (z-score) [23]: -0.361
- glycan array binding signal (z-score) [24]: -0.337
- glycan array binding signal (z-score) [25]: -0.182
- glycan array binding signal (z-score) (Man(a1-3)[Man(a1-6)]Man): -0.024
- glycan array binding signal (z-score) [26]: -0.084
